The other results are listed elsewhere or left out.
What follows are sequences tested against T1, OsWOX13 (Oryza sativa, UniProt Q5QMM3 1-267) (assay: protein-binding microarray (RPBM); PBS, 2% BSA, 51.3 ng/ul salmon testes DNA, 50 uM zinc acetate, 200 nM TF, 25 C, 1 h; high values mean tight binding). Details: protein: recombinant; tags: N-terminal polyhistidine and DsRed monomer fusion (pET32a); label: CyDye5-dUTP incorporated in the synthesized complementary strand; 3' TTTTT single-stranded linker to array surface; dsDNA, one strand shown.
T1 sequence: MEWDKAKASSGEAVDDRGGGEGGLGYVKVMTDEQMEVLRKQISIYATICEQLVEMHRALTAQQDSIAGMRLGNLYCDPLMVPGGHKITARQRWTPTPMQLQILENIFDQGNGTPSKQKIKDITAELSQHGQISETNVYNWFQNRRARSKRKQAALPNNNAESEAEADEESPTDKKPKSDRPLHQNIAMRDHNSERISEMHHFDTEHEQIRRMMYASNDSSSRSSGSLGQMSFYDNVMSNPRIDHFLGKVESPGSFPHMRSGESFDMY
In short: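 Per-feature fluorescence intensity (arbitrary units), read on an Axon 4000B scanner, is the binding signal. Transcription factors carrying an N-terminal polyhistidine tag and DsRed fusion were expressed in E. coli BL21-CodonPlus and purified on Ni–NTA. A custom Agilent array, made double-stranded by primer extension with Cy5-dUTP and blocked with 2% BSA, was incubated with 200 nM protein in PBS, 2% BSA, salmon testes DNA and 50 µM zinc acetate at 25 °C for 1 h and then washed.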

Sequence	binding signal
ATCACATAATTACATATGTGAATGTAAAACAACTAATAATCGGAGTCACCTAGTGCAG	8670 fluorescence intensity (a.u.)
AAGATAGATAGGTGAGGCATACGGTGAGTACCGAGTAGGACGGAGTCACCTAGTGCAG	3710 fluorescence intensity (a.u.)
CTACTCATTAATTATTTAATTATATGAAATTTTCACACTTCGGAGTCACCTAGTGCAG	30700 fluorescence intensity (a.u.)
GGCAGGCAGCCCTGATTAGCTAAACACGTCATTGCTCAGGCGGAGTCACCTAGTGCAG	4270 fluorescence intensity (a.u.)
CTTTAAAATTTATTCCAAATTATAACAATATTTTCTTCTCCGGAGTCACCTAGTGCAG	3410 fluorescence intensity (a.u.)
TTTAATTAATTGTAGGACAAGATAGCAAACGTGTGGCTACCGGAGTCACCTAGTGCAG	59900 fluorescence intensity (a.u.)
TACACTGATTGACAGACATTGAGCCTGTAGCTGGAAAGATCGGAGTCACCTAGTGCAG	40500 fluorescence intensity (a.u.)
CCTAATCTGCTCTGTAAATGGCAGATTACCGGGTCGTTTACGGAGTCACCTAGTGCAG	3260 fluorescence intensity (a.u.)
ATTTTCTATCTGGACATGATTGACCTCACGTTTCACCGTCCGGAGTCACCTAGTGCAG	18400 fluorescence intensity (a.u.)
ATAACTTACAGTAATCACGTGGTTATTACGATAACCGTCGCGGAGTCACCTAGTGCAG	8060 fluorescence intensity (a.u.)
TCTGATGGATTTGTAACAGCAGCTTTCAGATCTCTCTTTCCGGAGTCACCTAGTGCAG	34600 fluorescence intensity (a.u.)
GAAGACCGCCATTGTTGATTGGAAGAAGAGGAAAAGGACGCGGAGTCACCTAGTGCAG	16400 fluorescence intensity (a.u.)
TATGATAAAATTGTTACATCATTTACCAGATGATTTAGAACGGAGTCACCTAGTGCAG	7880 fluorescence intensity (a.u.)
GATCAATCATAACCATCTAGACGTTCATTGTGAGTAGTGCCGGAGTCACCTAGTGCAG	30700 fluorescence intensity (a.u.)
AGTTGATGGACTGAAATGGAACCATTAGGTAGCAAACATTCGGAGTCACCTAGTGCAG	13500 fluorescence intensity (a.u.)
ATTAGATTGGCTATAGATGAATTGGAGCTGGTAGTAGGCTCGGAGTCACCTAGTGCAG	49400 fluorescence intensity (a.u.)
AGCTGCATAATTGACACATAATAGATAAAATTGGAGTGCTCGGAGTCACCTAGTGCAG	26100 fluorescence intensity (a.u.)
TCATGATTGTCAGATACATAGGATTTGTTTCTACTTAGCTCGGAGTCACCTAGTGCAG	17900 fluorescence intensity (a.u.)
ATACCACAGATAATTACTGACAAGTCAGTGCAAACCATTGCGGAGTCACCTAGTGCAG	8730 fluorescence intensity (a.u.)
TTTGCCAAAATTTGATTAATTTCGTTTGACTTTTGCCGTTCGGAGTCACCTAGTGCAG	10300 fluorescence intensity (a.u.)
AACATTAATTGATTGTGTAGAGAGGAATCGTGCGCTGTTTCGGAGTCACCTAGTGCAG	46800 fluorescence intensity (a.u.)

Sequence	binding signal
GCGTAAAGTTTGGATTTTGATTGAAATTGGAGATGATGTGCGGAGTCACCTAGTGCAG	26000 fluorescence intensity (a.u.)
CAGCTGCAAACTAATCAATCAATAAACAATTTAGAGGAGCCGGAGTCACCTAGTGCAG	24800 fluorescence intensity (a.u.)
GTATACAACTAATTTCAATCAATCGACATGGTTTAAACCACGGAGTCACCTAGTGCAG	21000 fluorescence intensity (a.u.)
ACCCTCCCATCAATCACTCCTATAGTATACTCGTACTATACGGAGTCACCTAGTGCAG	13300 fluorescence intensity (a.u.)
CCTTGACAGATTAATCCTACGTTTTGACCCCATATGTTTTCGGAGTCACCTAGTGCAG	38400 fluorescence intensity (a.u.)
TAGGCTAGTCATTTAAACTGACTCACAGACAAACTGTTTGCGGAGTCACCTAGTGCAG	3640 fluorescence intensity (a.u.)
AGTGAAAGCGATTATGTGATTGGAGTACAGTGAGCTTGATCGGAGTCACCTAGTGCAG	12500 fluorescence intensity (a.u.)
TTGAGTAAATTTCGTAAATTATATATACTTTGATCAAACTCGGAGTCACCTAGTGCAG	9320 fluorescence intensity (a.u.)
ATAAACATGACATTTTAAACGGGCCCTAAAATTGCTACACCGGAGTCACCTAGTGCAG	8750 fluorescence intensity (a.u.)
GGTTAATTAAAGCATGCGTTTACATATGCATGGGTGACAGCGGAGTCACCTAGTGCAG	18700 fluorescence intensity (a.u.)
ATTATTTTCTCTTTTAATTGCACTAGATCAATACTAATACCGGAGTCACCTAGTGCAG	4060 fluorescence intensity (a.u.)
AAGTAATGTTAATTTCTGGAGCCTCAGAAATAGAAATGGTCGGAGTCACCTAGTGCAG	4080 fluorescence intensity (a.u.)
GTTAATGATTGCGAAGTATAAACTACACAAGCTTTCACTACGGAGTCACCTAGTGCAG	41300 fluorescence intensity (a.u.)
CTGCAACTAAATTTTAGGATTAATTTAAGGAACTTTCGGGCGGAGTCACCTAGTGCAG	11300 fluorescence intensity (a.u.)
TCAATTAATATATAATTGGCATTGGGTTTGATCATCTCTGCGGAGTCACCTAGTGCAG	50700 fluorescence intensity (a.u.)
AAATCAATCTCAAAATTAAGTTTGAAAATTTAAAATTTAGCGGAGTCACCTAGTGCAG	6880 fluorescence intensity (a.u.)
TATTTAAATTACTAGGCTGATTATCGAATGATTGACCGGTCGGAGTCACCTAGTGCAG	45900 fluorescence intensity (a.u.)
ATCTCTGTCTCTGTCTGTCAATCTCACGCACACCAGCACACGGAGTCACCTAGTGCAG	14500 fluorescence intensity (a.u.)
CGAAATTATACGGTGATGGCATTAGTCAGAGCACGATACCCGGAGTCACCTAGTGCAG	9100 fluorescence intensity (a.u.)
ATCTGATGGACGAGAGATGAAGCAAACCTCAGCCGTCCATCGGAGTCACCTAGTGCAG	11700 fluorescence intensity (a.u.)
GGTGGGATAATTAAGTTCGGTATGAAACTTTTCTCCTCCTCGGAGTCACCTAGTGCAG	6270 fluorescence intensity (a.u.)
